According to the supplement of paper PMC10369915:
This is one part of the list. No stated cut-off is given here; in the data, active = 3.2 or more and inactive = the rest. Only a few entries rise above the background.

The binders below were run against SHP2 C-SH2 domain E139D (assay: enrichment score (SH2-bound / input frequency) (ratio); bacterial display of known human phosphotyrosine sites (pTyr-Var adds point mutants) read by sequencing; higher = stronger binding; tyrosines were phosphorylated by kinases first). Settings: peptide library: Human pTyr.
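Further: displayed peptides selected on beads carrying the immobilized SH2 domain, with library peptides lacking any tyrosine serving as negative controls.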

Enrichment score, inactive:
MLRIVEPYIAWGAPN [RL7_HUMAN_139_YA] 1
GSGGSGGYGGRSRYG [ROA2_HUMAN_347] 0.751
GRSSGSPYGGGAGSG [ROA3_HUMAN_360_YA] 0.563
GSPYGGGYGSGGGSG [ROA3_HUMAN_364] 0.633
GSPAGGGYGSGGGSG [ROA3_HUMAN_364_YA] 0.525
SALLGDHYVQLPATA [RON_HUMAN_1353_YA] 0.561
AVQLPATYMNLGPST [RON_HUMAN_1360_YA] 1
EIYSADYYRVQSKSL [ROR1_HUMAN_646] 0.927
FGLARDIYKNDYYRK [ROS1_HUMAN_2110] 1.27
SLEISQSYTTTQRES [ATM_HUMAN_370] 0.495
FGLARDIYKNDAARK [ROS1_HUMAN_2110_YA] 0.932
DIYKNDYYRKRGEGL [ROS1_HUMAN_2115] 1.01
YTPTSPKYSPTSPTY [RPB1_HUMAN_1909] 0.75
ATPTSPKYSPTSPTA [RPB1_HUMAN_1909_YA] 0.737
APIPSVPYAPFAAIL [RPGF1_HUMAN_504] 1.33
EIEILLRYGQHPNII [RPS6KA3_HUMAN_470] 1.79
IITLKDVYDDGKAVA [RPS6KA3_HUMAN_483_YA] 0.795
DVYDDGKYVYVVTEL [RPS6KA3_HUMAN_488] 1.43

These binders were tested against SHP2 C-SH2 domain wild-type in the same assay as above. Settings: peptide library: Human pTyr.

Enrichment score, inactive:
MLRIVEPYIAWGAPN [RL7_HUMAN_139_YA] 0.885
GSGGSGGYGGRSRYG [ROA2_HUMAN_347] 0.699
GRSSGSPYGGGAGSG [ROA3_HUMAN_360_YA] 0.482
GSPYGGGYGSGGGSG [ROA3_HUMAN_364] 0.462
GSPAGGGYGSGGGSG [ROA3_HUMAN_364_YA] 0.387
SALLGDHYVQLPATA [RON_HUMAN_1353_YA] 0.515
AVQLPATYMNLGPST [RON_HUMAN_1360_YA] 0.753
EIYSADYYRVQSKSL [ROR1_HUMAN_646] 0.728
FGLARDIYKNDYYRK [ROS1_HUMAN_2110] 1.48
SLEISQSYTTTQRES [ATM_HUMAN_370] 0.558
FGLARDIYKNDAARK [ROS1_HUMAN_2110_YA] 0.876
DIYKNDYYRKRGEGL [ROS1_HUMAN_2115] 0.765
YTPTSPKYSPTSPTY [RPB1_HUMAN_1909] 0.704
ATPTSPKYSPTSPTA [RPB1_HUMAN_1909_YA] 0.841
APIPSVPYAPFAAIL [RPGF1_HUMAN_504] 1.12
EIEILLRYGQHPNII [RPS6KA3_HUMAN_470] 1.26
IITLKDVYDDGKAVA [RPS6KA3_HUMAN_483_YA] 0.692
DVYDDGKYVYVVTEL [RPS6KA3_HUMAN_488] 1.3

What follows are binders tested against SHP2 N-SH2 domain L43F in the same assay as above. Settings: peptide library: Human pTyr.

Enrichment score, inactive:
MLRIVEPYIAWGAPN [RL7_HUMAN_139_YA] 0.924
GSGGSGGYGGRSRYG [ROA2_HUMAN_347] 0.63
GRSSGSPYGGGAGSG [ROA3_HUMAN_360_YA] 0.56
GSPYGGGYGSGGGSG [ROA3_HUMAN_364] 0.411
GSPAGGGYGSGGGSG [ROA3_HUMAN_364_YA] 0.522
SALLGDHYVQLPATA [RON_HUMAN_1353_YA] 0.581
AVQLPATYMNLGPST [RON_HUMAN_1360_YA] 1.21
EIYSADYYRVQSKSL [ROR1_HUMAN_646] 0.695
FGLARDIYKNDYYRK [ROS1_HUMAN_2110] 0.98
SLEISQSYTTTQRES [ATM_HUMAN_370] 0.508
FGLARDIYKNDAARK [ROS1_HUMAN_2110_YA] 0.867
DIYKNDYYRKRGEGL [ROS1_HUMAN_2115] 0.823
YTPTSPKYSPTSPTY [RPB1_HUMAN_1909] 0.599
ATPTSPKYSPTSPTA [RPB1_HUMAN_1909_YA] 0.616
APIPSVPYAPFAAIL [RPGF1_HUMAN_504] 1.03
EIEILLRYGQHPNII [RPS6KA3_HUMAN_470] 1.41
IITLKDVYDDGKAVA [RPS6KA3_HUMAN_483_YA] 0.886
DVYDDGKYVYVVTEL [RPS6KA3_HUMAN_488] 1.07

What follows are binders tested against SHP2 N-SH2 domain T42A in the same assay as above. Settings: peptide library: Human pTyr.

Enrichment score, inactive:
MLRIVEPYIAWGAPN [RL7_HUMAN_139_YA] 0.914
GSGGSGGYGGRSRYG [ROA2_HUMAN_347] 0.583
GRSSGSPYGGGAGSG [ROA3_HUMAN_360_YA] 0.488
GSPYGGGYGSGGGSG [ROA3_HUMAN_364] 0.49
GSPAGGGYGSGGGSG [ROA3_HUMAN_364_YA] 0.384
SALLGDHYVQLPATA [RON_HUMAN_1353_YA] 0.505
AVQLPATYMNLGPST [RON_HUMAN_1360_YA] 0.849
EIYSADYYRVQSKSL [ROR1_HUMAN_646] 0.521
FGLARDIYKNDYYRK [ROS1_HUMAN_2110] 2.04
SLEISQSYTTTQRES [ATM_HUMAN_370] 0.444
FGLARDIYKNDAARK [ROS1_HUMAN_2110_YA] 1.15
DIYKNDYYRKRGEGL [ROS1_HUMAN_2115] 0.924
YTPTSPKYSPTSPTY [RPB1_HUMAN_1909] 0.593
ATPTSPKYSPTSPTA [RPB1_HUMAN_1909_YA] 0.871
APIPSVPYAPFAAIL [RPGF1_HUMAN_504] 1.04
EIEILLRYGQHPNII [RPS6KA3_HUMAN_470] 1.53
IITLKDVYDDGKAVA [RPS6KA3_HUMAN_483_YA] 0.757
DVYDDGKYVYVVTEL [RPS6KA3_HUMAN_488] 1.18

The binders below were run against SHP2 N-SH2 domain T52S in the same assay as above. Settings: peptide library: Human pTyr.

Enrichment score, inactive:
MLRIVEPYIAWGAPN [RL7_HUMAN_139_YA] 0.866
GSGGSGGYGGRSRYG [ROA2_HUMAN_347] 0.631
GRSSGSPYGGGAGSG [ROA3_HUMAN_360_YA] 0.445
GSPYGGGYGSGGGSG [ROA3_HUMAN_364] 0.545
GSPAGGGYGSGGGSG [ROA3_HUMAN_364_YA] 0.467
SALLGDHYVQLPATA [RON_HUMAN_1353_YA] 0.705
AVQLPATYMNLGPST [RON_HUMAN_1360_YA] 1.51
EIYSADYYRVQSKSL [ROR1_HUMAN_646] 0.715
FGLARDIYKNDYYRK [ROS1_HUMAN_2110] 1.92
SLEISQSYTTTQRES [ATM_HUMAN_370] 0.6
FGLARDIYKNDAARK [ROS1_HUMAN_2110_YA] 1.1
DIYKNDYYRKRGEGL [ROS1_HUMAN_2115] 0.899
YTPTSPKYSPTSPTY [RPB1_HUMAN_1909] 0.461
ATPTSPKYSPTSPTA [RPB1_HUMAN_1909_YA] 1.23
APIPSVPYAPFAAIL [RPGF1_HUMAN_504] 1.09
EIEILLRYGQHPNII [RPS6KA3_HUMAN_470] 1.36
IITLKDVYDDGKAVA [RPS6KA3_HUMAN_483_YA] 0.956
DVYDDGKYVYVVTEL [RPS6KA3_HUMAN_488] 1.22

These binders were tested against SHP2 N-SH2 domain wild-type in the same assay as above. Settings: peptide library: Human pTyr.

Enrichment score, inactive:
MLRIVEPYIAWGAPN [RL7_HUMAN_139_YA] 1.01
GSGGSGGYGGRSRYG [ROA2_HUMAN_347] 0.722
GRSSGSPYGGGAGSG [ROA3_HUMAN_360_YA] 0.524
GSPYGGGYGSGGGSG [ROA3_HUMAN_364] 0.48
GSPAGGGYGSGGGSG [ROA3_HUMAN_364_YA] 0.503
SALLGDHYVQLPATA [RON_HUMAN_1353_YA] 0.642
AVQLPATYMNLGPST [RON_HUMAN_1360_YA] 0.907
EIYSADYYRVQSKSL [ROR1_HUMAN_646] 0.691
FGLARDIYKNDYYRK [ROS1_HUMAN_2110] 1.32
SLEISQSYTTTQRES [ATM_HUMAN_370] 0.661
FGLARDIYKNDAARK [ROS1_HUMAN_2110_YA] 0.911
DIYKNDYYRKRGEGL [ROS1_HUMAN_2115] 0.984
YTPTSPKYSPTSPTY [RPB1_HUMAN_1909] 0.889
ATPTSPKYSPTSPTA [RPB1_HUMAN_1909_YA] 0.575
APIPSVPYAPFAAIL [RPGF1_HUMAN_504] 1.03
EIEILLRYGQHPNII [RPS6KA3_HUMAN_470] 1.46
IITLKDVYDDGKAVA [RPS6KA3_HUMAN_483_YA] 0.771
DVYDDGKYVYVVTEL [RPS6KA3_HUMAN_488] 1.28
